Measured values: patent US20240101682A1 (PINETREE THERAPEUTICS, published 2024)

How the values were obtained:
[1] = target: T1, recombinant human EGFR, biotinylated (human, UniProt P00533 fragment, biotinylated (site not stated)); experiment: BLI (Octet Red 96), biotinylated antigen on streptavidin sensor, bsAb in solution, bivalent format
T1 construct: also called huEGFR; recombinant huEGFR

[2] = target: T2, recombinant human NRP1, biotinylated (human, UniProt O14786-2 22-644, limits assumed, biotinylated (site not stated)); experiment: as above
T2 construct: also called huNRP1; recombinant NRP1

Row | Binder | Kd [1] [pM] | Kd [2] [pM]
1 | bsAb with heavy chain polypeptide SEQ ID NO: 7 and light chain SEQ ID NO: 12 (bispecific antibody, human IgG1, kappa) heavy: QVQLQESGPGLVKPSETLSLTCTVSGGSVSSGDYYWTWIRQSPGKGLEWIGHIYYSGNTNYNPSLKSRLTISIDTSKTQFSLKLSSVTAADTAIYYCVRDRVTGAFDIWGQGTMVTVSS[human IgG1 constant region not written out]GGGGSGGGGSGGGGSEVQLVESGGGLVQPGGSLRLSCAASGFTFSSYAMSWVRQAPGKGLEWVSQISPAGGYTNYADSVKGRFTISADTSKNTAYLQMNSLRAEDTAVYYCARGELPYFRMSKVMDVWGQGTLVTVSSGGGGSGGGGSGGGGSDIQMTQSPSSLSASVGDRVTITCRASQFLSSYLAWYQQKPGKAPKLLIYGASARASGVPSRFSGSGSGTDFTLTISSLQPEDFATYYCQQYLASPATFGQGTKVEIK light: DIQMTQSPSSLSASVGDRVTITCQASQDISNYLNWYQQKPGKAPKLLIYDASNLETGVPSRFSGSGSGTDFTFTISSLQPEDIATYFCQHFDHLPLAFGGGTKVEIKRTVAAPSVFIFPPSDEQLKSGTASVVCLLNNFYPREAKVQWKVDNALQSGNSQESVTEQDSKDSTYSLSSTLTLSKADYEKHKVYACEVTHQGLSSPVTKSFNRGEC | < 100 | 280
2 | bsAb with heavy chain polypeptide SEQ ID NO: 8 and light chain SEQ ID NO: 12 (bispecific antibody, human IgG1, kappa) heavy: QVQLQESGPGLVKPSETLSLTCTVSGGSVSSGDYYWTWIRQSPGKGLEWIGHIYYSGNTNYNPSLKSRLTISIDTSKTQFSLKLSSVTAADTAIYYCVRDRVTGAFDIWGQGTMVTVSS[human IgG1 constant region not written out]GGGGSGGGGSGGGGSEVQLVESGGGLVQPGGSLRLSCAASGFTFSSYAMSWVRQAPGKGLEWVSQISPAGGYTNYADSVKGRFTISADTSKNTAYLQMNSLRAEDTAVYYCARGELPYFRMSKVMDVWGQGTLVTVSSGDGSSGGGGASDIQMTQSPSSLSASVGDRVTITCRASQFLSSYLAWYQQKPGKAPKLLIYGASARASGVPSRFSGSGSGTDFTLTISSLQPEDFATYYCQQYLASPATFGQGTKVEIK light: DIQMTQSPSSLSASVGDRVTITCQASQDISNYLNWYQQKPGKAPKLLIYDASNLETGVPSRFSGSGSGTDFTFTISSLQPEDIATYFCQHFDHLPLAFGGGTKVEIKRTVAAPSVFIFPPSDEQLKSGTASVVCLLNNFYPREAKVQWKVDNALQSGNSQESVTEQDSKDSTYSLSSTLTLSKADYEKHKVYACEVTHQGLSSPVTKSFNRGEC | < 100 | 2000
3 | bispecific antibody with heavy chain SEQ ID NO: 11 and light chain SEQ ID NO: 12 (Construct 11) (bispecific antibody, human IgG1, kappa, also called Construct 11 bsAb) heavy: QVQLQESGPGLVKPSETLSLTCTVSGGSVSSGDYYWTWIRQSPGKGLEWIGHIYYSGNTNYNPSLKSRLTISIDTSKTQFSLKLSSVTAADTAIYYCVRDRVTGAFDIWGQGTMVTVSS[human IgG1 constant region not written out]GGGGSGGGGSGGGGSEVQLLESGGGLVQPGGSLRLSCAASGFTFSSYAMSWVRQAPGKGLEWVSQISPAGGYTNYADSVKGRFTISRDNSKNTLYLQMNSLRAEDTAVYYCARGELPYFRMSKVMDVWGQGTLVTVSSGGGGSGGGGSGGGGSEIVLTQSPGTLSLSPGERATLSCRASQFLSSYLAWYQQKPGQAPRLLIYGASARASGIPDRFSGSGSGTDFTLTISRLEPEDFAVYYCQQYLASPATFGQGTKVEIK light: DIQMTQSPSSLSASVGDRVTITCQASQDISNYLNWYQQKPGKAPKLLIYDASNLETGVPSRFSGSGSGTDFTFTISSLQPEDIATYFCQHFDHLPLAFGGGTKVEIKRTVAAPSVFIFPPSDEQLKSGTASVVCLLNNFYPREAKVQWKVDNALQSGNSQESVTEQDSKDSTYSLSSTLTLSKADYEKHKVYACEVTHQGLSSPVTKSFNRGEC | < 100 | 250

The remaining lines, values ahead:

Row | Kd [1] [pM] | Kd [2] [pM] | Binder
4 | < 100 | 880 | bsAb with heavy chain polypeptide SEQ ID NO: 9 and light chain SEQ ID NO: 12 (bispecific antibody, human IgG1, kappa) heavy: QVQLQESGPGLVKPSETLSLTCTVSGGSVSSGDYYWTWIRQSPGKGLEWIGHIYYSGNTNYNPSLKSRLTISIDTSKTQFSLKLSSVTAADTAIYYCVRDRVTGAFDIWGQGTMVTVSS[human IgG1 constant region not written out]GGGGSGGGGSGGGGSEVQLVESGGGLVQPGGSLRLSCAASGFTFSSYAMSWVRQAPGKGLEWVSQISPAGGYTNYADSVKGRFTISADTSKNTAYLQMNSLRAEDTAVYYCARGELPYFRMSKVMDVWGQGTLVTVSSGGGGSGGGGSGGGGSGGGGSDIQMTQSPSSLSASVGDRVTITCRASQFLSSYLAWYQQKPGKAPKLLIYGASARASGVPSRFSGSGSGTDFTLTISSLQPEDFATYYCQQYLASPATFGQGTKVEIK light: DIQMTQSPSSLSASVGDRVTITCQASQDISNYLNWYQQKPGKAPKLLIYDASNLETGVPSRFSGSGSGTDFTFTISSLQPEDIATYFCQHFDHLPLAFGGGTKVEIKRTVAAPSVFIFPPSDEQLKSGTASVVCLLNNFYPREAKVQWKVDNALQSGNSQESVTEQDSKDSTYSLSSTLTLSKADYEKHKVYACEVTHQGLSSPVTKSFNRGEC
5 | < 100 | 250 | bsAb with heavy chain polypeptide SEQ ID NO: 10 and light chain SEQ ID NO: 12 (bispecific antibody, human IgG1, kappa) heavy: QVQLQESGPGLVKPSETLSLTCTVSGGSVSSGDYYWTWIRQSPGKGLEWIGHIYYSGNTNYNPSLKSRLTISIDTSKTQFSLKLSSVTAADTAIYYCVRDRVTGAFDIWGQGTMVTVSS[human IgG1 constant region not written out]GGGGSGGGGSGGGGSDIQMTQSPSSLSASVGDRVTITCRASQFLSSYLAWYQQKPGKAPKLLIYGASARASGVPSRFSGSGSGTDFTLTISSLQPEDFATYYCQQYLASPATFGQGTKVEIKGGGGSGGGGSGGGGSEVQLVESGGGLVQPGGSLRLSCAASGFTFSSYAMSWVRQAPGKGLEWVSQISPAGGYTNYADSVKGRFTISADTSKNTAYLQMNSLRAEDTAVYYCARGELPYFRMSKVMDVWGQGTLVTVSS light: DIQMTQSPSSLSASVGDRVTITCQASQDISNYLNWYQQKPGKAPKLLIYDASNLETGVPSRFSGSGSGTDFTFTISSLQPEDIATYFCQHFDHLPLAFGGGTKVEIKRTVAAPSVFIFPPSDEQLKSGTASVVCLLNNFYPREAKVQWKVDNALQSGNSQESVTEQDSKDSTYSLSSTLTLSKADYEKHKVYACEVTHQGLSSPVTKSFNRGEC
